The list shows a part of the results. Many values rest on one well or one pass, so single values are uncertain.

Among the data in the supplement of paper PMC4604168 (melanoma cell lines) are cell count values, retold here.
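Further: cells treated in 1,536-well plates, then fixed and DAPI-stained, with nuclei counted from automated high-throughput microscope images.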

The assay concerns WM451Lu. The assay can be described thus: cell count relative to DMSO control; melanoma cells; higher = more viable cells. The following applies: library dose: standard library concentration; 72 h.
For `O=c1[nH]nc(Sc2ncc([N+](=O)[O-])s2)n1-c1ccc2c(c1)OCCO2` + O=S(=O)(c1ccccc1)N(CC(F)(F)F)c1ccc(C(O)(C(F)(F)F)C(F)(F)F)cc1 [T0901317] (first compound 1 µM, partner dose 7 µM), the cell count worked out at 104%.
Then `COc1cc(Nc2ncc(F)c(Nc3ccc4c(n3)NC(=O)C(C)(C)O4)n2)cc(OC)c1OC` [Tamatinib] + O=c1cc(-c2cccc3c2Sc2ccccc2S3)oc(N2CCOCC2)c1 [KU55933] (first compound 2 µM, partner dose 5 µM), with 69%.
`O=C(O)c1ccc(-c2c[nH]c3ncc(-c4ccccc4)cc23)cc1C1CCCC1` + O=C1NC(=O)/C(=C/c2ccc(-c3ccc(F)cc3O)o2)S1 [AS252424] (first compound 0.8 µM, partner dose 5 µM) displayed a cell count of 100%.
`O=c1[nH]nc(Sc2ncc([N+](=O)[O-])s2)n1-c1ccc2c(c1)OCCO2` + CCCCCCCCCCCC1=C(O)C(=O)C=C(O)C1=O [Embelin] (first compound 1 µM, partner dose 6 µM): the cell count is 84.1%.
Then `O=c1[nH]nc(Sc2ncc([N+](=O)[O-])s2)n1-c1ccc2c(c1)OCCO2` + Oc1cc(-c2nc(-c3ccccc3)[nH]c2-c2ccncc2)ccc1Cl [L779450] (first compound 1 µM, partner dose 1 µM), with 54.7%; and `O=c1[nH]nc(Sc2ncc([N+](=O)[O-])s2)n1-c1ccc2c(c1)OCCO2` + Oc1nc(-c2ccc(C(F)(F)F)cc2)nc2c1CSCC2 [XAV939] (first compound 1 µM, partner dose 10 µM), with 79.6%; and `O=c1[nH]nc(Sc2ncc([N+](=O)[O-])s2)n1-c1ccc2c(c1)OCCO2` + COC(=O)c1sccc1S(=O)(=O)Nc1ccc(Nc2ccccc2)cc1OC [GSK0660] (first compound 1 µM, partner dose 5 µM), with 97.6%.
To `O=C(Nc1cccc(Cl)c1)Nc1ncc(CCNc2ncnc3ccsc23)s1` + COc1ccc2c(c1)CCC1C2CCC2(C)C(NCCCCCCN3C(=O)C=CC3=O)CCC12 [U73122] (first compound 0.004 µM, partner dose 2 µM) belongs 73.3%; to `COc1cc(Nc2ncc(F)c(Nc3ccc4c(n3)NC(=O)C(C)(C)O4)n2)cc(OC)c1OC` [Tamatinib] + Oc1cc(-c2nc(-c3ccccc3)[nH]c2-c2ccncc2)ccc1Cl [L779450] (first compound 2 µM, partner dose 1 µM), 37.8%.
Turning to `O=c1[nH]nc(Sc2ncc([N+](=O)[O-])s2)n1-c1ccc2c(c1)OCCO2` + O=C(Nc1ccccc1)c1cc([N+](=O)[O-])ccc1Cl [GW9662] (first compound 1 µM, partner dose 10 µM), the cell count turned out to be 72.2%.
Then `COc1cc(Nc2ncc(F)c(Nc3ccc4c(n3)NC(=O)C(C)(C)O4)n2)cc(OC)c1OC` [Tamatinib] + COc1cc2ncnc(Nc3ccc(Oc4ccccc4)cc3)c2cc1OC [SrcI1] (first compound 2 µM, partner dose 10 µM), with 68.4%; and `O=c1[nH]nc(Sc2ncc([N+](=O)[O-])s2)n1-c1ccc2c(c1)OCCO2` + CC(C)CCN1c2nc(Nc3cc(F)c(O)c(F)c3)ncc2N(C)C(=O)C1C [BID1870] (first compound 1 µM, partner dose 1 µM), with 109%; and `O=C(O)c1ccc(-c2c[nH]c3ncc(-c4ccccc4)cc23)cc1C1CCCC1` + COC(=O)c1sccc1S(=O)(=O)Nc1ccc(Nc2ccccc2)cc1OC [GSK0660] (first compound 0.8 µM, partner dose 5 µM), with 102%.
To `O=c1[nH]nc(Sc2ncc([N+](=O)[O-])s2)n1-c1ccc2c(c1)OCCO2` + Cn1cc(/C=C2\C(=O)Nc3cccnc32)c2ccccc21 [GW441756] (first compound 1 µM, partner dose 2 µM) belongs 90.2%; to `O=c1[nH]nc(Sc2ncc([N+](=O)[O-])s2)n1-c1ccc2c(c1)OCCO2` + COc1ccc(-c2ccc3c(N4CCOCC4)nc(N4C[C@@H](C)O[C@@H](C)C4)nc3n2)cc1CO [KU0063794] (first compound 1 µM, partner dose 0.1 µM), 103%; to `Cn1cncc1[C@@](N)(c1ccc(Cl)cc1)c1ccc2c(c1)c(-c1cccc(Cl)c1)cc(=O)n2C` [tipifarnib] + COc1ccc2c(c1)CCC1C2CCC2(C)C(NCCCCCCN3C(=O)C=CC3=O)CCC12 [U73122] (first compound 0.05 µM, partner dose 2 µM), 89.6%.
To `O=c1[nH]nc(Sc2ncc([N+](=O)[O-])s2)n1-c1ccc2c(c1)OCCO2` + CCN(CC)CCCCNc1ncc2cc(-c3cc(OC)cc(OC)c3)c(NC(=O)NC(C)(C)C)nc2n1 [PD173074] (first compound 1 µM, partner dose 0.5 µM) belongs 80.5%.
For the molecule `O=c1[nH]nc(Sc2ncc([N+](=O)[O-])s2)n1-c1ccc2c(c1)OCCO2` + COc1cc2ncnc(Nc3ccc(Oc4ccccc4)cc3)c2cc1OC [SrcI1] (first compound 1 µM, partner dose 10 µM), the cell count worked out at 88.3%.
Turning to `O=c1[nH]nc(Sc2ncc([N+](=O)[O-])s2)n1-c1ccc2c(c1)OCCO2` + O=C1NC(=O)/C(=C/c2ccc(-c3ccc(F)cc3O)o2)S1 [AS252424] (first compound 1 µM, partner dose 5 µM), the cell count is 102%.
Then `O=c1[nH]nc(Sc2ncc([N+](=O)[O-])s2)n1-c1ccc2c(c1)OCCO2` + CCc1ccc(CCOc2ccc(CC3SC(=O)NC3=O)cc2)nc1 [pioglitazone] (first compound 1 µM, partner dose 10 µM), with 77.1%; and `O=c1[nH]nc(Sc2ncc([N+](=O)[O-])s2)n1-c1ccc2c(c1)OCCO2` + O=C(O)C(=O)Nc1sc2c(c1C(=O)O)CCNC2 [TCS401] (first compound 1 µM, partner dose 8.33333 µM), with 104%; and `O=c1[nH]nc(Sc2ncc([N+](=O)[O-])s2)n1-c1ccc2c(c1)OCCO2` + Nc1cccc2c1CN(C1CCC(=O)NC1=O)C2=O [lenalidomide] (first compound 1 µM, partner dose 5 µM), with 88.5%.
In the case of `O=c1[nH]nc(Sc2ncc([N+](=O)[O-])s2)n1-c1ccc2c(c1)OCCO2` + c1cc(-c2cnn3cc(-c4ccc(OCCN5CCCCC5)cc4)cnc23)ccn1 [Dorsomorphin] (first compound 1 µM, partner dose 2 µM), the cell count came to 81.9%.
In the case of `O=c1[nH]nc(Sc2ncc([N+](=O)[O-])s2)n1-c1ccc2c(c1)OCCO2` + COc1ccc2c(c1)CCC1C2CCC2(C)C(NCCCCCCN3C(=O)C=CC3=O)CCC12 [U73122] (first compound 1 µM, partner dose 2 µM), the cell count is 97.5%.
To `C[C@@H]1CCN(C(=O)CC#N)C[C@@H]1N(C)c1ncnc2[nH]ccc12` + Oc1nc(-c2ccc(C(F)(F)F)cc2)nc2c1CSCC2 [XAV939] (first compound 5 µM, partner dose 10 µM) belongs 88.3%.
